Data on 74 compounds can be found in the supplement of paper PMC6135742.

Structures can show the parent of a compound that is named as a salt. ± gives the standard deviation of the averaged measurements. Whole data set: some 2,600 compounds, median “total cell number (DAPI+ nuclei) relative to DMSO vehicle control” near -1.4, cut for the lowest 2% near -23. This is one part of the list.

This experiment has as its system jimpy (Plp1 jimpy) mouse iPSC-derived oligodendrocyte progenitor cells. The experiment is described as follows: total cell number (DAPI+ nuclei) relative to DMSO vehicle control (SDs above negative control mean); higher = more surviving cells. To be noted: 10 µM; 3 days.
In turn, `CN(C)CCCC1(c2ccc(F)cc2)OCc2cc(C#N)ccc21` (centres undefined) [Citalopram hydrobromide] displayed a total cell number of -1.25.

`Nn1nnc2ccccc21` [1-Aminobenzotriazole] registered a total cell number of -0.722. For the compound `CN(C)[C@@H](CCOc1cccc2ccccc12)c1ccccc1` [Dapoxetine HCl], the total cell number is -10.4. As for `CC(C)c1noc(N2CCC(COc3ccc(-c4ccc(S(C)(=O)=O)cc4)nc3)CC2)n1`, the total cell number is -2.21. `O=C(NC1CCNCC1)c1n[nH]cc1NC(=O)c1c(Cl)cccc1Cl` showed a total cell number of -16.2. For the compound `COc1ccccc1CNCCCCCCNCCCCCCCCNCCCCCCNCc1ccccc1OC` [Methoctramine tetrahydrochloride], the total cell number is -6.45. For the compound `CC[C@H](Nc1ncnc2[nH]cnc12)c1nc2cccc(F)c2c(=O)n1-c1ccccc1` [CAL-101 (Idelalisib, GS-1101)], the total cell number was -11.4. With `COc1cc2c[n+](C)c3c4cc5c(cc4ccc3c2cc1OC)OCO5` [Nitidine chloride] the figure was -10.1; with `CC(=O)Nc1ccccc1` [Acetanilide], -1.98; with `COC(=O)C[C@H](NC(=O)[C@H](C)NC(=O)[C@@H](NC(=O)OCc1ccccc1)C(C)C)C(=O)CF`, -1.54. For `CSc1ccc2c(c1)C(N1CCN(C)CC1)Cc1ccccc1S2` (centres undefined) [Methiothepin mesylate], the total cell number is -10.6.

`CC(C)(C)C(=O)Oc1ccc(S(=O)(=O)Nc2ccccc2C(=O)NCC(=O)O)cc1` [Sivelestat sodium salt hydrate] registered a total cell number of 0.0346.

For `CC(C(=O)O)c1ccc2c(c1)Cc1cccnc1O2` (centres undefined) [Pranoprofen], the total cell number turned out to be 2.24. The compound `C[N+]1(C)[C@@H]2C[C@@H](OC(=O)C(O)(c3cccs3)c3cccs3)C[C@H]1[C@@H]1O[C@@H]12` [Tiotropium Bromide hydrate] registered a total cell number of -2.07. With `COc1ccc(/C=C/c2nc(NCCCN(C)C)c3ccccc3n2)cc1` the figure was -10.6; with `Cc1ccc(O)c(N=Nc2ccccc2)n1`, -1.95. The compound `CC(C)N(C[C@H]1O[C@@H](n2cnc3c(N)ncnc32)[C@H](O)[C@@H]1O)[C@H]1C[C@@H](CCc2nc3cc(C(C)(C)C)ccc3[nH]2)C1` registered a total cell number of -3.08. With `COC(=O)C1=C(C)NC(C)=C(C(=O)OCCN2CCN(C(c3ccccc3)c3ccccc3)CC2)C1c1cccc([N+](=O)[O-])c1` (centres undefined) [Manidipine], the total cell number is -13. `COC(=O)C1=C(C)NC(C)=C(C(=O)OCCN2CCN(C(c3ccccc3)c3ccccc3)CC2)C1c1cccc([N+](=O)[O-])c1` (centres undefined) [Manidipine 2HCl]: the total cell number is -11.4. `COC(c1ccccc1)(c1ccccc1)[C@H](Oc1nc(C)cc(C)n1)C(=O)O` [Ambrisentan] had a total cell number of 0.746. To `COc1ccc([C@@H]2CC(=O)c3c(O)cc(O[C@@H]4O[C@H](CO[C@@H]5O[C@@H](C)[C@H](O)[C@@H](O)[C@H]5O)[C@@H](O)[C@H](O)[C@H]4O)cc3O2)cc1O` [Hesperidin] belongs -0.925; to `CC(N)=NCCCC[C@H](N)C(=O)O` [L-N6-(1-Iminoethyl)lysine hydrochloride], -1.71. Compound `CC(C)(C(=O)O)c1ccc(C(O)CCCN2CCC(C(O)(c3ccccc3)c3ccccc3)CC2)cc1` (centres undefined) [Fexofenadine hydrochloride] had a total cell number of 0.444. The compound `CC(C)(C(=O)O)c1ccc(C(O)CCCN2CCC(C(O)(c3ccccc3)c3ccccc3)CC2)cc1` (centres undefined) [Fexofenadine HCl] yielded a total cell number of -1.24. With `O=c1cc(N2CCOCC2)oc2c(-c3cccc4c3sc3ccccc34)cccc12`, the total cell number is -11.4. To `CN(C)CCCN1c2ccccc2Sc2ccccc21` [Promazine hydrochloride] belongs -4.46; to `Cc1cc(C(C)(C)C)c(O)c(C)c1CC1=NCCN1` [Oxymetazoline hydrochloride], -1.52; to `Cc1cc(C(C)(C)C)c(O)c(C)c1CC1=NCCN1` [Oxymetazoline HCl], 1.07. To `CC(=O)O[C@]1(C(C)=O)CC[C@H]2[C@@H]3C[C@H](C)C4=CC(=O)C=C[C@]4(C)[C@@]3(F)[C@@H](O)C[C@@]21C` [Fluorometholone Acetate] belongs 7.08; to `O=C[C@H](O)[C@@H](O)[C@H](O)CO` [Xylose], -0.515. With `Cc1oncc1C(=O)Nc1ccc(C(F)(F)F)cc1` [Leflunomide] the figure was 0.416 ± 0.91; with `O=C(O)c1cccnc1Nc1cccc(C(F)(F)F)c1` [Niflumic acid], -0.659 ± 0.94. In turn, `CC1CC(OC(=O)C(O)c2ccccc2)CC(C)(C)C1` (centres undefined) [Cyclandelate] displayed a total cell number of 0.293.

Take `CC(CCc1ccccc1)NCC(O)c1ccc(O)c(C(N)=O)c1` (centres undefined) [Labetalol hydrochloride]: the total cell number is -8.09. As to `CCOC(=O)[C@H](CCc1ccccc1)N[C@@H](C)C(=O)N1Cc2ccccc2C[C@H]1C(=O)O` [Quinapril HCl], the total cell number was -1.89. As for `Cc1cn(C2C=CC(CO)O2)c(=O)[nH]c1=O` (centres undefined) [2',3'-didehydro-3'-deoxythymidine], the total cell number was -1.17. To `Cc1cn([C@H]2O[C@@H](CO)[C@H](O)[C@H]2F)c(=O)[nH]c1=O` [Clevudine] belongs -1.07. Turning to `Cc1onc(-c2c(Cl)cccc2Cl)c1C(=O)N[C@@H]1C(=O)N2[C@@H]1SC(C)(C)[C@@H]2C(=O)O` [Dicloxacillin Sodium], the total cell number is -1.44.

With `Cc1cc(NC(=O)Nc2ccc(N(C)C)cc2)c2cc(F)cc(F)c2n1`, the total cell number was 7.6. For `Cn1cc(-c2ccc3ncc(Cc4ccc5ncccc5c4)n3n2)cn1`, the total cell number is -5.21. With `CC1C(=O)OC2C(O)C34C5CC(C(C)(C)C)C36C(OC(=O)C6O)OC4(C(=O)O5)C12O` (centres undefined) [Ginkgolide B] the figure was 0.63; with `C[N+](C)(C)CCCCCC[N+](C)(C)C` [Hexamethonium bromide], -1.23; with `C[N+](C)(C)CCCCCC[N+](C)(C)C` [Hexamethonium dichloride], -0.141. `CCCCCCCCc1ccc(-c2ccc(C(=O)O)cc2)cc1` showed a total cell number of -1.51. To `CN(C)/N=N/c1[nH]cnc1C(N)=O` [Dacarbazine] belongs 1.44; to `CCCCCC[C@@H]([C@@H](C)O)n1cnc2c(N)ncnc21` [erythro-9-(2-Hydroxy-3-nonyl)adenine hydrochloride], 0.262; to `Nc1nc2c(ncn2[C@@H]2O[C@H](CO)[C@@H](O)[C@H]2O)c(=O)[nH]1` [Guanosine], -0.603. To `CC1(C)S[C@@H]2[C@H](NC(=O)[C@H](NC(=O)N3CCNC3=O)c3ccccc3)C(=O)N2[C@H]1C(=O)O` [Azlocillin sodium salt] belongs -0.73; to `Nc1nc2c(c(=O)[nH]1)C[C@@H](CCc1ccc(C(=O)N[C@@H](CCC(=O)O)C(=O)O)cc1)CN2` [Lometrexol hydrate], -1.44; to `CC(C)c1ccc2oc3nc(N)c(C(=O)O)cc3c(=O)c2c1` [Amlexanox], -1.83. `O=C1[C@H](Cc2ccc(O)cc2)N2C(=O)CCN(C(=O)NCc3ccccc3)[C@H]2CN1Cc1cccc2ccccc12` returned a total cell number of -7.61.

The compound `CCn1c2ccccc2c2cc(Nc3ccnc(NCCCN4CCOCC4)n3)ccc21` showed a total cell number of -16.4. `COc1cccc2c1[C@@H]1CN(CCCCn3c(=O)[nH]c4c(sc5ncc(-c6ccccc6)nc54)c3=O)C[C@@H]1CO2` [Fiduxosin hydrochloride]: the total cell number was -6.17. Consider `O=C(C=Cc1ccccc1)NC(NC(=S)Nc1ccc(Cl)cc1)C(Cl)(Cl)Cl` (centres undefined), for which the total cell number is -2.46. `CN[C@@H]1[C@H](O[C@H]2[C@H](O[C@H]3[C@H](O)[C@@H](O)[C@H](N=C(N)N)[C@@H](O)[C@@H]3N=C(N)N)O[C@@H](C)[C@]2(O)C=O)O[C@@H](CO)[C@H](O)[C@H]1O` [Streptomycin sulfate] had a total cell number of -1.22.

As to `Nc1nc(Cl)nc2c1ncn2[C@H]1C[C@H](O)[C@@H](CO)O1` [Cladribine], the total cell number is -22.8. `OCCOCCN1CCN(C2=Nc3ccccc3Sc3ccccc32)CC1` [Quetiapine Fumarate] registered a total cell number of -6.87.

Compound `Cc1cc(C(=O)NOCCO)c(Nc2ccc(I)cc2F)n(C)c1=O` returned a total cell number of -8.75. On to `Cn1cnc2c(NCc3ccccc3)nc(NCCO)nc21` [Olomoucine], for which the total cell number stood at 1.01.

Regarding `CC1(C)S[C@@H]2[C@H](NC(=O)[C@H](N)c3ccc(O)cc3)C(=O)N2[C@H]1C(=O)O` [Amoxicillin Sodium], the total cell number is -0.368. Turning to `CC1(C)S[C@@H]2[C@H](NC(=O)[C@H](N)c3ccc(O)cc3)C(=O)N2[C@H]1C(=O)O` [Amoxicillin], the total cell number was -1.32. To `COc1cccc2c1C(=O)c1c(O)c3c(c(O)c1C2=O)C[C@@](O)(C(=O)CO)C[C@@H]3O[C@H]1C[C@H](N)[C@H](O)[C@H](C)O1` [Doxorubicin (Adriamycin)] belongs 1.92; to `N#Cc1c(O)c2c(-c3ccc(-c4ccccc4O)cc3)csc2[nH]c1=O`, 0.298; to `CCCCC(=O)O[C@H]1CC[C@H]2[C@@H]3CCc4cc(O)ccc4[C@H]3CC[C@]12C` [Estradiol valerate], -1.15. To `Cc1[nH]c2ccccc2c1CCNC(=O)c1cccs1` belongs -3.09. `N=C(N)c1ccc(OCCCCCOc2ccc(C(=N)N)cc2)cc1` [Pentamidine] displayed a total cell number of -7.31. Compound `N=C(N)c1ccc(OCCCCCOc2ccc(C(=N)N)cc2)cc1` [Pentamidine isethionate] displayed a total cell number of -7.16. With `Fc1ccc(C(c2ccc(F)cc2)N2CCN(C/C=C/c3ccccc3)CC2)cc1` [Flunarizine dihydrochloride] the figure was -7.03; with `Fc1ccc(C(c2ccc(F)cc2)N2CCN(C/C=C/c3ccccc3)CC2)cc1` [Flunarizine 2HCl], -7.08; with `Oc1ccc([C@H]2COc3cc(O)ccc3C2)cc1` [Equol], 0.365. With `O=c1cc(-c2cccc3c2Sc2ccccc2S3)oc(N2CCOCC2)c1` the figure was -7.57.

Regarding `Cc1ccc(Nc2c(F)cccc2Cl)c(CC(=O)O)c1` [Lumiracoxib], the total cell number is -1.07. To `CCCc1cc(=O)[nH]c(=S)[nH]1` [Propylthiouracil] belongs -0.866; to `Cc1onc(-c2ccccc2)c1-c1ccc(S(N)(=O)=O)cc1` [Valdecoxib], 3.38.
